Experimental data published in PubChem BioAssay (NCATS).
The inconclusive results got no clear call from the source; some entries with a clear call stand among them for comparison. Potencies of inconclusive entries are left out as doubtful fits. The source made the active and inactive calls. Calls come from the whole dose curve; as a rule, active = well fitted inhibition curve with a large enough effect; inconclusive = small, poorly fitted or top-dose-only effect; inactive = no such curve, though single readings can be large or run the other way.

target: Protein phosphatase 1D (Homo sapiens) (UniProt O15297); test: RapidFire Mass Spectrometry qHTS Assay for Modulators of WT P53-Induced Phosphatase 1 (WIP1) (AID 1347424); details: WIP1 dephosphorylation of phosphopeptide, RapidFire MS; series mostly up to 63 µM; activity change, negative = inhibition: at the top concentration
Text: Assay Provider (PI): Nathan Coussens Ph. D.
National Center for Advancing Translational Sciences (NCATS), Rockville, MD
National Institute of Health (NIH), Bethesda, Maryland
WT P53-Induced Phosphatase 1 (WIP1) is a member of the magnesium-dependent serine/threonine protein phosphatase (PPM) family and is induced by P53 in response to DNA damage. In several human cancers, the WIP1 protein is overexpressed, which is generally associated with a worse prognosis. Although WIP1 is an attractive therapeutic target, no potent, selective, and bioactive small-molecule modulator with favorable pharmacokinetics has been reported. Phosphatase enzymes are among the most challenging targets for small molecules because of the difficulty of achieving both modulator selectivity and bioavailability. Another major obstacle has been the availability of robust and physiologically relevant phosphatase assays that are suitable for high-throughput screening.
Here, we describe two orthogonal biochemical WIP1 activity assays that utilize phosphopeptides from native WIP1 substrates. We optimized a RapidFire MS assay to quantify the enzymatically dephosphorylated peptide reaction product in a 384-well format. Additionally, a redshifted Rhodamine-PBP fluorescence assay was optimized in a 1,536-well format to enable real-time WIP1 activity measurements through the detection of the orthogonal reaction product, Pi. We validated these two optimized assays by quantitative high-throughput screening against the National Center for Advancing Translational Sciences (NCATS) Pharmaceutical Collection and used secondary assays to confirm and evaluate inhibitors identified in the primary screen.
SEQUENCE No. (e.g., 1, 2, 3, etc.); […] (e.g., Cells, Incubation, Reagent, etc.); VALUE; DESCRIPTION
1; Reagent; 50 uL; dispensed assay buffer: 0.1% formic acid in water (10 uL : 40 uL) solution in column 1
3; Library Compounds; 63 nL; library compounds in DMSO, columns 3-24
4; Control Compounds; 63 nL; DMSO in wells I-P, columns 1-2, GSK830371 (10 uM, final) in wells A-H, column 2
5; Time; 1 hr; incubation
6; Substrate; 2 uL; VEPPL-pS-QETFS (10 uM) in assay buffer, column 2-24
7; Time; 5 min; incubation
8; Reagent; 2 uL; 0.5% formic acid in water, columns 2-24
9; Reagent; 38 uL; VEPPL-S-QETF*S in 0.1% formic acid, columns 2-24
10; Detection; mass spec; RapidFire mass spectrometry
NOTES (numbers refer to sequence above)
1, 2, 6; dispensed reagent in White Nunc 384-well PP microplates (264573); assay buffer: 50 mM Tris-HCl pH 7.5, 30 mM MgCl2, 1 mM TCEP, 0.1 mM EGTA, 75 ug/mL BSA.
2, 6, 8, 9; Dispensed with BioRaptr (Beckman Coulter)
2, 6, 9; Final concentrations: 10 nM WIP1; 2 uM VEPPL-pS-QETFS; 1 uM VEFFL-S-QETF*S
3 & 4; Kalypsys Pintool transfer (Wako USA), Tip wash sequence: water, DMSO, methanol, 20 sec vacuum dry.
5 & 7; incubation at room temperature
10; RapidFire mass spectrometry read using the Agilent RapidFire 360 (Clausse, 2019)
Clausse V, et al. Physiologically relevant orthogonal assay for the discovery of small-molecule modulators of WIP1 […] in high-throughput screens. J Biol Chem. 2019, 294(46): 17654-17668. doi:10.1074/jbc.RA119.010201
Potency is the fitted concentration of half-maximal effect; tags give direction and shape of the fitted curve.

Sequence of UniProt O15297 (O15297 whole entry, looked up): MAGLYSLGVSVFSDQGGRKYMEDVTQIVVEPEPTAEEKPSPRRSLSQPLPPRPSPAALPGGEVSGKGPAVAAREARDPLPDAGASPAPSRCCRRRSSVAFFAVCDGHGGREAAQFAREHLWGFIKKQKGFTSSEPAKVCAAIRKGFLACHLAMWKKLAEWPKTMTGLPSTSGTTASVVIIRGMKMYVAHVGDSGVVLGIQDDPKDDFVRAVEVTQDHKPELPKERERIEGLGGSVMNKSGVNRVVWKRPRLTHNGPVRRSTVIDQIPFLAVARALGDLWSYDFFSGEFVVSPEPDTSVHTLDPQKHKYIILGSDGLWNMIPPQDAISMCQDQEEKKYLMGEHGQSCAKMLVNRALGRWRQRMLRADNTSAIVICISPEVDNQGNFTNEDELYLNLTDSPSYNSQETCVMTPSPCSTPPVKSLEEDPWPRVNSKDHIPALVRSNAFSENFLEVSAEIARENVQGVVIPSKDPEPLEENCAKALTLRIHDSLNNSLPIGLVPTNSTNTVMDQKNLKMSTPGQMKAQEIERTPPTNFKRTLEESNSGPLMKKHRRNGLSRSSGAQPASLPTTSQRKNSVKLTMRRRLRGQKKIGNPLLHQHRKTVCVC

**Q.** Which Potency does the source give for `CCC(Cc1c(I)cc(I)c(N)c1I)C(=O)O` (stereo not drawn) here?
**A.** inconclusive [inhibitor, partial curve]

**Q.** With `Cn1c(=O)c2c(ncn2CCO)n(C)c1=O` as the compound, how does the Potency read?
**A.** inconclusive [inhibitor, partial curve, poor fit]

**Q.** With `COC(=O)[C@H]1[C@H]2C[C@@H]3c4[nH]c5cc(OC)ccc5c4CCN3C[C@H]2C[C@@H](OC(=O)/C=C/c2ccc(O)c(OC)c2)[C@@H]1OC` as the compound, how does the Potency read?
**A.** inconclusive [inhibitor, partial curve, poor fit]

**Q.** For `CO/N=C(\C(=O)N[C@@H]1C(=O)N2C(C(=O)O)=C(CSc3nc(=O)c(O)nn3C)CS[C@H]12)c1csc(N)n1`, which Potency is on record?
**A.** inconclusive [inhibitor, single point]

**Q.** For `CO[C@@H]1[C@@H](OC(N)=O)[C@@H](O)[C@H](Oc2ccc3c(O)c(NC(=O)c4ccc(O)c(CC=C(C)C)c4)c(=O)oc3c2C)OC1(C)C`, which Potency is on record?
**A.** inconclusive [inhibitor, single point]

**Q.** `CC[N+](C)(CC)CCOC(=O)C(O)(c1ccccc1)C1CCCCC1` (stereo not drawn) was tested. Which “activity change, negative = inhibition” value did it give?
**A.** inactive: -8.63%

**Q.** For `CCCCCOc1ccc(C2SC(=O)NC2=O)cc1OCC` (stereo not drawn), which Potency is on record?
**A.** active: 2.51 µM

**Q.** How did the Potency turn out when `CCCCC1C(=O)N(c2ccccc2)N(c2ccccc2)C1=O` was run?
**A.** inconclusive [inhibitor, single point]

**Q.** For `Brc1ccccc1-c1ccccc1`, which “activity change, negative = inhibition” value is on record?
**A.** inactive: -5.4% [at 128 µM]

**Q.** `CC(C)C(C)(C)C(C)(C)C(C)(C)S` was tested. Which “activity change, negative = inhibition” value did it give?
**A.** inactive: 2.19% [at 128 µM]

**Q.** For `NC(N)=N/N=C/c1c(Cl)cccc1Cl`, which “activity change, negative = inhibition” value is on record?
**A.** inactive: 7.5%

**Q.** For `CC[C@H](c1ccc(O)cc1)[C@@H](CC)c1ccc(O)cc1`, which Potency is on record?
**A.** inconclusive [inhibitor, partial curve]

**Q.** Which Potency does the source give for `C#C[C@]1(OC(C)=O)CC[C@H]2[C@@H]3CCC4=C/C(=N/O)CC[C@@H]4[C@H]3CC[C@@]21CC` here?
**A.** inconclusive [inhibitor, full curve]

**Q.** For `O=C(O)[C@@H]1[C@H]2C[C@H]3c4[nH]c5ccccc5c4CCN3C[C@@H]2CC[C@@H]1O`, which Potency is on record?
**A.** inconclusive [inhibitor, full curve, poor fit]

**Q.** Which “activity change, negative = inhibition” value does the source give for `CC(N)C(=O)OC(C)(C)Cc1ccc(Cl)cc1` (stereo not drawn) here?
**A.** inactive: 33.6%

**Q.** Which Potency does the source give for `[Cl][In]([Cl])[Cl]` here?
**A.** inconclusive [inhibitor, full curve]

**Q.** With `CCCCCCCCCCCCCCCCC(C(=O)O)C(O)(CC(=O)O)C(=O)O` (stereo not drawn) as the compound, how does the Potency read?
**A.** inconclusive [inhibitor, full curve, poor fit]

**Q.** Which Potency does the source give for `Cc1oc(-c2ccccc2)nc1CCC(=O)c1ccc(CC2SC(=O)NC2=O)cc1` (stereo not drawn) here?
**A.** inconclusive [inhibitor, partial curve]

**Q.** Which “activity change, negative = inhibition” value does the source give for `CN1C(C)(C)CCCC1(C)C` here?
**A.** inactive: 10.5%

**Q.** `NS(=O)(=O)c1cc2c(cc1Cl)NC(CC1CCCC1)NS2(=O)=O` (stereo not drawn) was tested. Which Potency did it give?
**A.** inconclusive [inhibitor, partial curve]

**Q.** With `c1ccc2[nH]ccc2c1` as the compound, how does the “activity change, negative = inhibition” value read?
**A.** inactive: 1.47%

**Q.** How did the Potency turn out when `OCCOCCN1CCN(C(c2ccccc2)c2ccc(Cl)cc2)CC1` (stereo not drawn) was run?
**A.** inconclusive [inhibitor, partial curve]

**Q.** For `Oc1ccc(Cl)cc1Cc1cc(Cl)ccc1O`, which Potency is on record?
**A.** active: 22.4 µM

**Q.** For `CCCCCCCCOc1ccc(C(=O)c2ccccc2)c(O)c1`, which “activity change, negative = inhibition” value is on record?
**A.** inactive: 12.5%

**Q.** `CCCc1c(OCCCCc2nn[nH]n2)ccc(C(C)=O)c1O` was tested. Which Potency did it give?
**A.** inconclusive [inhibitor, single point]

**Q.** Which Potency does the source give for `O=C1c2ccccc2C(=O)C1c1ccc(Br)cc1` here?
**A.** inconclusive [inhibitor, single point]

**Q.** `COc1cc(C(=O)NCCCCCC(=O)O)cc(OC)c1OC` was tested. Which “activity change, negative = inhibition” value did it give?
**A.** inactive: -2.51%

**Q.** How did the Potency turn out when `O=C(Nc1ccc(Cl)cc1)Nc1ccc(Cl)c(C(F)(F)F)c1` was run?
**A.** active: 12.6 µM

**Q.** For `CCOC(=O)C1=C(C)NC(C)=C(C(=O)OC)C1c1cccc(Cl)c1Cl` (stereo not drawn), which “activity change, negative = inhibition” value is on record?
**A.** inactive: -8.45%

**Q.** Which “activity change, negative = inhibition” value does the source give for `CC(C)C[C@@H]1[C@H](c2ccccc2)OC(=O)N1CCCN1CCCCCC1` here?
**A.** inactive: -5.75%

**Q.** `CCc1oc2ccccc2c1C(=O)c1cc(I)c(O)c(I)c1` was tested. Which Potency did it give?
**A.** active: 3.55 µM

**Q.** For `CC1(C)[C@@H](OC(=O)CCC(=O)O)CC[C@]2(C)[C@H]3C(=O)C=C4[C@@H]5C[C@@](C)(C(=O)O)CC[C@]5(C)CC[C@@]4(C)[C@]3(C)CC[C@@H]12`, which Potency is on record?
**A.** inconclusive [inhibitor, partial curve]

**Q.** `CCc1oc2ccccc2c1C(=O)c1cc(Br)c(O)c(Br)c1` was tested. Which Potency did it give?
**A.** active: 6.31 µM
